Measurements: patent US9474759B2 (priority 2011, dated 2016)

Target: norovirus 3CLpro (Norovirus, UniProt Q83883)
Assay: biochemical

SMILES	IC50
CC(C)C[C@H](NC(=O)OCc1ccccc1)C(=O)N[C@@H](CC1CCNC1=O)C(O)C(=O)NC(C)(C)C (stereo partly drawn) [Compound 5g]	> 50 µM
CC(C)C[C@H](NC(=O)OCc1ccccc1)C(=O)N[C@@H](CC1CCNC1=O)C(O)c1nccs1 (stereo partly drawn) [Compound 7b]	12.3 µM
CC(C)C[C@H](NC(=O)OCc1ccccc1)C(=O)N[C@@H](CC1CCNC1=O)C(=O)C(=O)NCc1ccccc1 (stereo partly drawn) [Compound 6f]	7.1 µM
CC(C)C[C@H](NC(=O)OCc1ccccc1)C(=O)N[C@@H](CC1CCNC1=O)C(=O)c1nccs1 (stereo partly drawn) [Compound 8b]	8.8 µM
CC(C)C[C@H](NC(=O)OCc1ccccc1)C(=O)N[C@@H](CC1CCNC1=O)C(=O)C(=O)NC1CCCCC1 (stereo partly drawn) [Compound 6e]	3.5 µM
CCOC(=O)CNC(=O)C(=O)[C@H](CC1CCNC1=O)NC(=O)[C@H](CC(C)C)NC(=O)OCc1ccccc1 (stereo partly drawn) [Compound 6d]	2.1 µM
CCOC(=O)CNC(=O)C(O)[C@H](CC1CCNC1=O)NC(=O)[C@H](CC(C)C)NC(=O)OCc1ccccc1 (stereo partly drawn) [Compound 5d]	> 50 µM
CC(C)NC(=O)C(=O)[C@H](CC1CCNC1=O)NC(=O)[C@H](Cc1ccccc1)NC(=O)OCc1ccccc1 (stereo partly drawn) [Compound 6h]	21.5 µM
CC(C)C[C@H](NC(=O)OCc1ccccc1)C(=O)N[C@@H](CC1CCNC1=O)C(=O)C(=O)NC(C)(C)C (stereo partly drawn) [Compound 6g]	2.8 µM
CC(C)C[C@H](NC(=O)OCc1ccccc1)C(=O)N[C@@H](CC1CCNC1=O)C(O)C(=O)NC1CCCCC1 (stereo partly drawn) [Compound 5e]	> 50 µM
CC(C)C[C@H](NC(=O)OCc1ccccc1)C(=O)N[C@@H](CC1CCNC1=O)C(O)C(=O)NCc1ccccc1 (stereo partly drawn) [Compound 5f]	> 50 µM
CC(C)NC(=O)C(O)[C@H](CC1CCNC1=O)NC(=O)[C@H](Cc1ccccc1)NC(=O)OCc1ccccc1 (stereo partly drawn) [Compound 5h]	23.1 µM
CCCCNC(=O)C(=O)[C@H](CC1CCNC1=O)NC(=O)[C@H](CC(C)C)NC(=O)OCc1ccccc1 (stereo partly drawn) [Compound 6c]	4.1 µM
CC(C)C[C@H](NC(=O)OCc1ccccc1)C(=O)N[C@@H](CC1CCNC1=O)C(O)C(=O)NC(C)C (stereo partly drawn) [Compound 5a]	45.3 µM
CC(C)C[C@H](NC(=O)OCc1ccccc1)C(=O)N[C@@H](CC1CCNC1=O)C(=O)c1ncco1 (stereo partly drawn) [Compound 8a]	2.3 µM
CC(C)C[C@H](NC(=O)OCc1ccccc1)C(=O)N[C@@H](CC1CCNC1=O)C(O)C(=O)NC1CC1 (stereo partly drawn) [Compound 5b]	> 50 µM
CCCCNC(=O)C(O)[C@H](CC1CCNC1=O)NC(=O)[C@H](CC(C)C)NC(=O)OCc1ccccc1 (stereo partly drawn) [Compound 5c]	> 50 µM
CC(C)C[C@H](NC(=O)OCc1ccccc1)C(=O)N[C@@H](CC1CCNC1=O)C(=O)C(=O)NC1CC1 (stereo partly drawn) [Compound 6b]	3.4 µM
